Screen size: about 360,000 compounds; about 6,000 (1.7%) were called active. Inconclusive results, whose numbers are uncertain, are shown with a selection of clear calls. Calls follow the shape of the dose curve; as a rule, active = well fitted cell-killing curve with a large enough effect; inconclusive = small, poorly fitted or top-dose-only effect, or effect the other way; inactive = flat fitted curve, though single readings scatter. No potency is given beside an inconclusive call; the fits are too rough.
experiment: qHTS for induction of synthetic lethality in tumor cells producing 2HG: qHTS for the HT-1080-NT fibrosarcoma cell line; conditions: HT-1080-NT fibrosarcoma viability, CellTiter-Glo ATP luminescence, 48 h; activity, negative = less viability: at 46.1 µM (top of the series) unless noted;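 also: NT is the 2HG producing partner of a matched IDH1 knockdown line; nearly all actives have a fitted effect of over 55% in size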;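 as to activity, negative = less viability: 0% = DMSO-treated cells and -100% = media-only wells without cells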
Method in brief: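 A 48-hour cytotoxicity screen used HT-1080-NT cells plated 2 hours before compound delivery. ATP-based CellTiter-Glo luminescence measured viability, normalized to DMSO and no-cell controls.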
Potency is read from the fitted curve at half-maximal effect; tags tell the direction and shape of the fitted curve.

SMILES	Potency	activity, negative = less viability
CCN1C(=O)C(CC(=O)Nc2ccc(OC)cc2)N(CCCN2CCN(c3ccc(F)cc3)CC2)C1=S (configuration not stated)	inconclusive [cytotoxic, partial curve, poor fit]	
c1cc(-c2cc3nc(NC4CCCCC4)ccn3n2)ccc1OCCN1CCOCC1	active: 20.6 µM	
NC(=O)CC1C(=O)N(c2ccc(F)cc2)C(=O)N1NC(=O)CCc1ccccc1 (configuration not stated)		inactive: 13.7%
CCOC(=O)c1c(NC(=O)C(=O)N/N=C/c2ccccc2O)sc2c1CCCCC2	inconclusive [cytotoxic, single point]	
CCOc1cc(CNc2cccc3[nH]c(C)nc23)ccc1OC	inconclusive [cytotoxic, single point]	
O=C(C1CCN(S(=O)(=O)c2cccc3nsnc23)CC1)N1CC=C(c2ccccc2)CC1		inactive: -6.79%
Cc1[nH]n2c(=O)cc(-c3ccc([N+](=O)[O-])cc3)nc2c1-c1ccccc1	active: 16.4 µM	
OCc1ccc2c(c1)c(-c1ccc3c(c1)OCCO3)c(-c1ccccc1)n2-c1ccccc1	inconclusive [cytotoxic, partial curve]	
O=C(N/N=C/c1c[nH]c2ccccc12)c1[nH]c2ccc(Br)cc2c1-c1ccccc1	active: 7.31 µM	
CCN(CC)Cc1c(O)ccc2c1O/C(=C\C=C\c1ccccc1)C2=O	inconclusive [cytotoxic, single point]	
Cc1ccc(S(=O)(=O)N2c3ccccc3OCC2c2ccccc2)cc1 (configuration not stated)	inconclusive [cytotoxic, single point]	
CCN(c1ccccc1)S(=O)(=O)c1ccc(C(=O)Nc2cccc(NC(C)=O)c2)cc1		inactive: -5.02%
CCOC(=O)c1c(CN(C)C)n(-c2ccccc2)c2cc(Br)c(O)cc12	inconclusive [cytotoxic, partial curve, poor fit]	
CC(C)C(=O)NC(=S)Nc1ccc(S(=O)(=O)NC(C)(C)C)cc1		inactive: -2.77%
CC(C)(C)CC(C)(C)NCC(O)COc1ccc2c(c1)CCC2 (configuration not stated)	active: 20.6 µM	
CCN(c1ccccc1)S(=O)(=O)c1ccc(C(=O)N(CCCN(C)C)c2nc3c(C)cccc3s2)cc1	inconclusive [cytotoxic, single point]	
Cc1ccc2cc(CN(CCN(C)C)C(=S)Nc3ccccc3)c(=O)[nH]c2c1C		inactive: -15.9%
CC(C)(C)C(=O)Nc1ccc(C(=O)N/N=C/c2ccccc2OC(=O)c2ccccc2)cc1	inconclusive [cytotoxic, single point]	
C/C(=N\Nc1ccc([N+](=O)[O-])cc1)c1ccc(O)cc1	inconclusive [cytotoxic, partial curve]	
CCn1c(C)nc2cc(-c3nc4n(n3)Cc3ccccc3-4)ccc21	active: 2.06 µM	
CSc1ccc(-c2nc3cnccn3c2Nc2ccc3c(c2)OCO3)cc1	inconclusive [cytotoxic, single point]	
CC1=CC(=O)c2ccccc2C1=O	inactive	
CC(=O)Nc1cc(-c2ccc(F)cc2)cn2c(-c3ccc(F)cc3)cnc12	inconclusive [cytotoxic, single point]	
CCCCCOC(=O)c1[nH]c2c(c1C)C(=O)CC(c1ccco1)C2 (configuration not stated)	active: 0.103 µM	

SMILES	Potency	activity, negative = less viability
Cc1nc2ccccc2c2oc(C(=O)N3CCC(N4CCCCC4)CC3)cc12		inactive: -12.6%
CC/C(=N\NC(=O)c1nnn(-c2nonc2N)c1-c1cccc(OC)c1)c1ccc(C)cc1		inactive: 20.9%
COc1ccc(C(=O)NCC(c2ccco2)N(C)C)cc1S(=O)(=O)NCc1ccc(Cl)cc1 (configuration not stated)		inactive: 1.14%
Cc1cccc2c(N)c3c(nc12)CCCC3 (tested in a mixture with another compound)		inactive: 2.52%
Cc1ccc(NC(=S)Nc2ccccn2)cc1C		inactive: 14.8%
COc1ccc(NC(=O)C(NC(=O)c2ccc(=O)[nH]c2)c2ccc(C)cc2)cc1 (configuration not stated)		inactive: 1.94%
CCCCCCCCCc1nc2sc3c(c2c(=O)n1NC(=O)c1ccccc1[N+](=O)[O-])CC(C)(C)OC3	inconclusive [cytotoxic, single point]	
CC(C)(C)c1ccc(OCCCC(=O)Nc2nnc(C3CC3)s2)cc1		inactive: -1.23%
Cc1ccc(C(=O)Nc2ccc(N3CCOCC3)nc2)cc1	inconclusive [rising, partial curve]	
Cc1[nH]n(-c2ccccc2)c(=O)c1/C=N/NC(=O)COc1ccccc1[N+](=O)[O-]	inconclusive [cytotoxic, partial curve]	
CN(C)CCCOc1ccc(-c2cccc3nncn23)cn1	inconclusive [rising, full curve, poor fit]	
O=C(CCc1nc2ccccc2s1)N1CCN(S(=O)(=O)c2cccs2)CC1		inactive: 2.52%
Cc1ccccc1OCC(=O)N/N=C/c1ccc(N(C)C)cc1	inconclusive [cytotoxic, single point]	
Cc1ccc(O)c(NC(=S)NC(=O)c2ccc(-c3ccc(Cl)cc3)o2)c1	inconclusive [cytotoxic, single point]	
C=CCC1(CC=C)CCCN1C(=O)C1CCC(=O)N(Cc2ccc(Cl)cc2)C1 (configuration not stated)	inconclusive [rising, partial curve, poor fit]	
CCOC(=O)N=Nc1c2ccccc2c2nc3no[nH]c3nc12	active: 1.16 µM	
O=C(c1ccc(Br)cc1)c1coc2ccc(O)cc12		inactive: -15.9%
CCN(Cc1ccccc1)C(=O)c1cc(-c2ccc(OC)c(OC)c2)nc2ccccc12		inactive: -10.9%
COC(=O)C1=C(C)N=C2SC(C#N)=C(N)N2C1c1ccc(OCc2ccccc2)cc1 (configuration not stated)	inconclusive [cytotoxic, single point]	
O=C(Nc1ccc2ccccc2c1)c1ccccc1O	active: 14.6 µM	
CC(=O)c1ccc(NC(=O)Nc2ccc3c(c2)N(C)C(=O)CS3)cc1	inconclusive [cytotoxic, single point]	
CC[n+]1c(/C=C/c2c[nH]c3ccccc23)ccc2cc(C)ccc21	active: 29.1 µM	
Nc1ccc2cc3[nH]c4cc(N)ccc4c3nc2c1	inconclusive [cytotoxic, single point]	

Reference: PubChem BioAssay AID686970 (National Center for Advancing Translational Sciences (NCATS), 2013)
